The text below walks through data of paper PMC12040169 (PLOS Biology, 2025).

Structures are written as SMILES. The list shows a part of the results.

The assay relates to T1, C. trachomatis L2/434/Bu expressing GFP (CTL2-GFP).
T1 construct: L2/434/Bu GFP intracellular growth in HeLa cells
Details: species or system HeLa; C. trachomatis total inclusion area by high-content imaging, normalised to DMSO. Conditions: total inclusion area; 28.5 h, 10 µM; inhibitor. In outline: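 Imaging read-out: GFP inclusions and Hoechst nuclei captured by high-content imaging after fixation. Inclusion area/number = chlamydial growth; nuclei count = host cell viability. MIC calculated per earlier method.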
For `Cc1noc([C@@H]2C[C@H](NC(=O)Nc3cccc(C#N)c3)CN2C)n1` [CBK288873], the “% of control remaining” value is recorded as 75.8277. With `CCN(CC)C(=O)Cn1nc(C)n2c(cc3oc(C)cc32)c1=O` [CBK283609] the figure was 95.2681; with `CC(NCc1ccncc1)=C1C(=O)c2ccccc2C1=O` [CBK262890], 97.6714. For the compound `COCC1(O)CCN(Cc2sccc2Cl)CC1` [CBK304252], the “% of control remaining” value came to 109.39.

With `CC1(C)CC(CCNC(=O)CCC(=O)O)(c2ccccc2)CCO1` (centres unmarked) [CBK218198], the “% of control remaining” value is on record as 57.8361. As for `Cc1cc(N2CCN(C(=O)c3ccsc3)CC2)nc(C(C)C)n1` [CBK304053], the “% of control remaining” value was determined as 42.8713. On to `Cc1c(CC(=O)O)c(=O)oc2cc(OCc3ccc(F)cc3)ccc12` [CBK286674], for which the “% of control remaining” value was 69.4741.

On to `O=C1CN(C(=O)NCC2COc3ccccc3O2)CCN1` (centres unmarked) [CBK155847], for which the “% of control remaining” value is 94.8008. With `COc1cc(C(=O)Nc2ccc3oc(-c4cccnc4)nc3c2)ccc1OCc1ccc(Cl)cc1` [CBK264037] the figure was 106.138; with `Cn1cc(CNCC2CCCN2c2cccnn2)c(-c2cccnc2)n1` (centres unmarked) [CBK305326], 31.0242; with `O=C(O)Cc1nc(-c2ccccc2)c(-c2ccccc2)s1` [CBK159470], 95.935.

Take `Cc1ccc(C(F)(F)F)cc1NCc1csc(C2CCCO2)n1` (centres unmarked) [CBK305424]: the “% of control remaining” value was 97.2869. With `Oc1cccc(Sc2nc3ccccc3nc2C(F)(F)F)c1` [CBK093780] the figure was 110.251; with `CN(CCc1ccncc1)C(=O)CCc1cc(F)ccc1F` [CBK304876], 25.9779; with `O=C(O)CC(Cc1ccc(Cl)cc1)C(=O)Nc1ccc([N+](=O)[O-])cc1` (centres unmarked) [CBK261973], 98.9913. With `COc1ccc(-c2cncc(N3CCN(c4cccc5[nH]ccc45)CC3)n2)cc1` [CBK066087] the figure was 93.6831. For `COc1ccc(S(=O)(=O)N2CCN(Cc3ccc4c(c3)OCO4)CC2)c2ccccc12` [CBK074521], the “% of control remaining” value turned out to be 91.8541. `CC(=O)Nc1cccc(CN(CCCO)c2ccccc2)c1` [CBK304833]: the “% of control remaining” value worked out at 41.2506. The value for `CN(C)C(=O)CC(O)c1cc2n(n1)CCN(Cc1cccs1)C2` (centres unmarked) [CBK306620] was 75.6841; that for `Cc1ccccc1Nc1nc(N)nc(CN(CCC#N)CC2CCC2)n1` [CBK305308] was 69.8761. The value for `Nc1ccc(-c2nc(NC(=O)c3cccs3)cnc2-c2ccc(F)cc2)cc1` [CBK037597] was 154.358; that for `OC(c1ccncc1)C(O)c1ccncc1` (centres unmarked) [CBK024254] was 72.5552; that for `COc1ccc2sc(N(Cc3cccnc3)C(=O)C3COc4ccccc4O3)nc2c1` (centres unmarked) [CBK294424] was 99.262. Consider `Cn1cccc1CNCCN1CCOCC1` [CBK278187C], for which the “% of control remaining” value worked out at 107.946. The value for `NS(=O)(=O)c1ccc(CCNC(=O)COc2ccc(Cl)cc2Cl)cc1` [CBK265694] was 103.326; that for `CS(=O)(=O)c1ccc(-c2ccc3c(c2)C(=O)NC(C2CCN(C(=O)OCc4ccccc4)CC2)O3)cc1` (centres unmarked) [CBK156087] was 87.7501. The value for `Cc1ccn2c(F)c(C(=O)N3CCCCC3CN3CCOCC3)nc2c1` (centres unmarked) [CBK307028] was 47.1992; that for `O=C(O)C(Cc1c[nH]c2ccccc12)N1C(=O)C2C3c4ccccc4C(c4ccccc43)C2C1=O` (centres unmarked) [CBK265377] was 109.045. The value for `COC(=O)c1ccc(CN2CCN(CCN3C(=O)c4cccc5cccc(c45)C3=O)CC2)cc1` [CBK074518] was 96.3635. Consider `CCCn1ncc(C(=O)N2CCN(CC3CCCN(C)C3)CC2)c1C` (centres unmarked) [CBK307122], for which the “% of control remaining” value was 89.8527. The value for `CCN1CCN(S(=O)(=O)c2cccc([N+](=O)[O-])c2)CC1` [CBK266675] was 97.0342; that for `COc1cncc(-c2cncc(N3CCN(CCN(C)C)CC3)n2)c1` [CBK065393] was 77.9788. The value for `CC1CCN(Cc2csc(NC(=O)CCn3c(-c4cccs4)n[nH]c3=S)n2)CC1` [CBK297892] was 75.538; that for `Cc1c(Cl)cccc1N1CCN(S(=O)(=O)CC23CCC(CC2=O)C3(C)C)CC1` (centres unmarked) [CBK269257] was 124.63; that for `O=C1NC2(CCc3ccccc31)CCN(C(=O)c1ccccn1)C2` (centres unmarked) [CBK283337] was 81.9338. The value for `Cc1c(C#N)c2ccc(O)c(CN(C)C)c2n1-c1ccccc1` [CBK094247C] was 90.0218; that for `Cc1cc(NC(=O)CN(C)Cc2cnn(-c3ccccc3)c2)on1` [CBK305622] was 58.1104; that for `COCCN(Cc1cnn(C)c1)Cc1cc(O)c2cc(F)ccc2n1` [CBK307359] was 83.2892. `O=C(c1ncoc1-c1ccc(F)cc1)N1CCOCC1` [CBK282362]: the “% of control remaining” value is 97.6817. For `CC1=CCCN(C(=O)C23CCOCC2CN(c2ncccn2)C3)C1` (centres unmarked) [CBK304743], the “% of control remaining” value is 99.2431. Turning to `CS(=O)(=O)N1CCC(Nc2nc(-c3cccs3)nc3ccccc23)CC1` [CBK305987], the “% of control remaining” value is 76.6037.

On to `O=C(Cn1c(-c2cccs2)cc2cccnc21)NCc1cccnc1` [CBK282457], for which the “% of control remaining” value was determined as 99.8. `Cc1ccc(OCC(=O)N2N=C(CC(C)C)CC2(O)C(F)(F)F)cc1C` (centres unmarked) [CBK293935]: the “% of control remaining” value is recorded as 101.054. The value for `CCCNc1nccnc1-c1ccc(C(=O)N2CCN(C)CC2)cc1` [CBK036892] was 93.3742; that for `CC(NC(=O)CCc1cc2n(n1)CCNC2)c1cn2ccsc2n1` (centres unmarked) [CBK306551] was 59.5455.

`CC(C)c1nc(C2CCCN(c3ncc(C#N)cc3Cl)C2)no1` (centres unmarked) [CBK304128]: the “% of control remaining” value was found to be 39.1228. The value for `CCn1cc(C2CN(S(=O)(=O)Cc3ccccc3)CCO2)cn1` (centres unmarked) [CBK304129] was 59.2413. The value for `CC1=CC(C)C(=S)NC(C)=C1` (centres unmarked) [CBK022735] was 95.9288; that for `CCc1noc(CN2CCC(c3c[nH]c4ccc(OC)cc34)CC2)n1` [CBK305960] was 71.9931. The value for `Cc1nn(C)cc1CN1CCC(C(=O)NCCc2ccccc2)C1` (centres unmarked) [CBK281968] was 98.2255; that for `O=c1cnnc(Nc2ccc(Nc3ccccc3)cc2)[nH]1` [CBK287921] was 76.7376. Consider `c1ccc2oc(-c3cncc(NCCCN4CCOCC4)n3)cc2c1` [CBK066045], for which the “% of control remaining” value worked out at 85.3864.

Take `O=C(O)c1[nH]c2ccccc2c1C(c1cccs1)c1c(C(=O)O)[nH]c2ccccc12` [CBK267786]: the “% of control remaining” value was determined as 81.5028. The value for `CCOC(=O)C1=C(C(=O)OCC)SC(=C2C(=S)C(C)(C)N(C(=O)c3ccc4ccccc4c3)c3ccccc32)S1` [CBK261643] was 87.4403; that for `O=C(C1CCCC1)N1CCCC(c2cc3cccnc3[nH]2)C1` (centres unmarked) [CBK284979] was 73.2874. `Cc1ccc2[nH]c(CNC(=O)c3cn[nH]c3C3CCCCN3)nc2c1` (centres unmarked) [CBK304741]: the “% of control remaining” value was determined as 37.6594. With `CCOC(=O)c1ccc(NCc2c(O)ccc3oc4c(c23)CCCC4)cc1` [CBK160394] the figure was 80.4307. With `Nc1nnc(CC(=O)N/N=C/c2cc(Br)c(O)c(Br)c2O)s1` [CBK262131] the figure was 90.6283; with `OC1(c2ccccn2)CCN(CCc2ccccc2)CC1` [CBK282904], 76.2296; with `O=S(=O)(c1ccc(F)cc1)N1CCCC(c2nccnc2-c2ccc(F)cc2)C1` (centres unmarked) [CBK286136], 86.4975. With `Cc1nc(C)c(C(=O)NC(Cc2ccsc2)c2nccs2)s1` (centres unmarked) [CBK282822] the figure was 115.962; with `Cc1cccc(Nc2nc(N/N=C/c3c[nH]nc3-c3ccccc3)nc(N3CCC(C)CC3)n2)c1C` [CBK262498], 93.6106. Regarding `O=C(NCc1ccc(Cl)c(Cl)c1)C1(c2ccccc2)CCCC1` [CBK149528], the “% of control remaining” value turned out to be 65.6973. For the compound `Cc1ccc2oc(C(=O)N3CCN(CC(=O)N(C)C)CC3)c(C)c2c1` [CBK281423], the “% of control remaining” value was 90.7143. On to `NCC(=O)Nc1ccc(F)c(F)c1` [CBK046313], for which the “% of control remaining” value came to 107.862.

`CCc1nc2ccc(C(=O)N3CCCC(C(N)=O)C3)cn2c1N(CC)CCN(C)C` (centres unmarked) [CBK146185]: the “% of control remaining” value is reported as 83.3414.

On to `O=C(/C=C/c1ccc(Cl)cc1Cl)NC(=S)Nc1ccccc1F` [CBK264332], for which the “% of control remaining” value is listed as 104.968. The value for `CCC(CC)C(=O)Nc1nc(OCCN2CCCC2=O)cnc1-c1ccc(Cl)cc1Cl` [CBK145210] was 74.9245; that for `O=C(NC1CCCC1)c1ccc(-c2cnc3[nH]c(=O)n(Cc4ccc(Cl)cc4)c3n2)cc1` [CBK065039] was 97.7464.

For the compound `Clc1ccc(CN2CCN(c3nccnc3OCC3COc4ccccc4O3)CC2)cc1` (centres unmarked) [CBK082786T], the “% of control remaining” value was found to be 65.8145.

As to `COc1ccccc1C(CC(=O)O)c1ccc2c(c1)OCO2` (centres unmarked) [CBK286971], the “% of control remaining” value is 118.782. The value for `COc1ccc2[nH]c(C(=O)O)c(CCNC(C)=O)c2c1` [CBK260943N] was 96.1572.

As for `CN1CCN(c2ccc([N+](=O)[O-])cc2/C=N/NC(=O)CCc2ccccc2O)CC1` [CBK263281], the “% of control remaining” value is 95.1251. With `COc1ccc(C(=O)Nc2ccccc2N2CCN(C)CC2)c(OC)c1` [CBK269763] the figure was 67.5743; with `CC1(C)OC(NC2CC3CCC2C3)=NC1=O` (centres unmarked) [CBK092237], 75.2942. The value for `Cc1sc2ncn(CC3(O)CCCNC3)c(=O)c2c1-c1ccc(F)cc1` (centres unmarked) [CBK307346] was 54.7824. With `COc1ccc(C(=O)N2CCC3(CCCN(C(=O)c4cc(OC)c(OC)c(OC)c4)C3)C2)cc1OC` (centres unmarked) [CBK131667] the figure was 93.8637; with `O=C(O)c1nc(/N=C/c2ccc(C#Cc3ccccc3)cc2)n[nH]1` [CBK261219], 103.816; with `CN(C)c1cccc(Nc2cc(-c3ccco3)ncn2)c1` [CBK091014], 81.4578. For `COc1ccc(CN(CCCN2CCOCC2)C(=O)NCc2ccc(C#N)cc2)cc1OC` [CBK159125], the “% of control remaining” value was determined as 101.04.
